According to the supplement of paper PMC8728848:
The other results are listed elsewhere or left out.

Key:
Assay in all cases: glycan array binding signal (z-score within array); higher = stronger binding
Conditions in all cases: glycan notation: IUPAC condensed, linker removed
[1] = biological target: Gal(b1-4)GlcNAc(b1-2)Man(a1-6)[Man(a1-3)]Man(b1-4)GlcNAc(b1-4)GlcNAc
Summary of the method: (§1)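 The binding signal is a Z-score computed within each array and averaged over linkers. Arrays of the same protein sequence at different concentrations or buffers were also averaged together. Data originate from 3228 arrays in the Consortium for Functional Glycomics database, kept only where the protein sequence was available.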

[2] = biological target: Gal(b1-4)GlcNAc(b1-2)[Gal(b1-4)GlcNAc(b1-4)]Man(a1-3)[Gal(b1-4)GlcNAc(b1-2)Man(a1-6)]Man(b1-4)GlcNAc(b1-4)GlcNAc
Summary of the method: as §1

[3] = biological target: Gal(b1-4)GlcNAc(b1-2)[Gal(b1-4)GlcNAc(b1-4)]Man(a1-3)[Gal(b1-4)GlcNAc(b1-2)[Gal(b1-4)GlcNAc(b1-6)]Man(a1-6)]Man(b1-4)GlcNAc(b1-4)GlcNAc
Summary of the method: as §1

[4] = biological target: Gal(b1-4)GlcNAc(b1-2)[Gal(b1-4)GlcNAc(b1-4)]Man(a1-3)[GlcNAc(b1-4)][Gal(b1-4)GlcNAc(b1-2)Man(a1-6)]Man(b1-4)GlcNAc(b1-4)GlcNAc
Summary of the method: as §1

[5] = biological target: Gal(b1-4)GlcNAc(b1-2)[Gal(b1-4)GlcNAc(b1-4)]Man(a1-3)[GlcNAc(b1-4)][Gal(b1-4)GlcNAc(b1-2)[Gal(b1-4)GlcNAc(b1-6)]Man(a1-6)]Man(b1-4)GlcNAc(b1-4)GlcNAc
Summary of the method: as §1

[6] = biological target: Gal(b1-4)GlcNAc(b1-2)[Gal(b1-4)GlcNAc(b1-6)]Man(a1-6)[Gal(b1-4)GlcNAc(b1-2)Man(a1-3)]Man(b1-4)GlcNAc(b1-4)GlcNAc
Summary of the method: as §1

[7] = biological target: Gal(b1-4)GlcNAc(b1-2)[Gal(b1-4)GlcNAc(b1-6)]Man(a1-6)[Gal(b1-4)GlcNAc(b1-2)Man(a1-3)]Man(b1-4)GlcNAc(b1-4)[Fuc(a1-6)]GlcNAc
Summary of the method: as §1

[8] = biological target: Gal(b1-4)GlcNAc(b1-2)[Gal(b1-4)GlcNAc(b1-6)]Man(a1-6)[GlcNAc(b1-4)][Gal(b1-4)GlcNAc(b1-2)Man(a1-3)]Man(b1-4)GlcNAc(b1-4)GlcNAc
Summary of the method: as §1

[9] = biological target: Gal(b1-4)GlcNAc(b1-2)[Gal(b1-4)GlcNAc(b1-6)]Man(a1-6)[GlcNAc(b1-4)][Gal(b1-4)GlcNAc(b1-2)[Gal(b1-4)GlcNAc(b1-4)]Man(a1-3)]Man(b1-4)GlcNAc(b1-4)[Fuc(a1-6)]GlcNAc
Summary of the method: as §1

[10] = biological target: Gal(b1-4)GlcNAc(b1-3)Gal(b1-3)GalNAc
Summary of the method: as §1

[11] = biological target: Gal(b1-4)GlcNAc(b1-3)Gal(b1-3)GlcNAc
Summary of the method: as §1

[12] = biological target: Gal(b1-4)GlcNAc(b1-3)Gal(b1-4)Glc
Summary of the method: as §1

[13] = biological target: Gal(b1-4)GlcNAc(b1-3)Gal(b1-4)GlcNAc
Summary of the method: as §1

[14] = biological target: Gal(b1-4)GlcNAc(b1-3)Gal(b1-4)GlcNAc(b1-2)Man(a1-3)[Gal(b1-4)GlcNAc(b1-3)Gal(b1-4)GlcNAc(b1-2)Man(a1-6)]Man(b1-4)GlcNAc(b1-4)GlcNAc
Summary of the method: as §1

[15] = biological target: Gal(b1-4)GlcNAc(b1-3)Gal(b1-4)GlcNAc(b1-2)Man(a1-3)[Gal(b1-4)GlcNAc(b1-3)Gal(b1-4)GlcNAc(b1-2)Man(a1-6)]Man(b1-4)GlcNAc(b1-4)[Fuc(a1-6)]GlcNAc
Summary of the method: as §1

[16] = biological target: Gal(b1-4)GlcNAc(b1-3)Gal(b1-4)GlcNAc(b1-2)[Gal(b1-4)GlcNAc(b1-3)Gal(b1-4)GlcNAc(b1-6)]Man(a1-6)[Gal(b1-4)GlcNAc(b1-3)Gal(b1-4)GlcNAc(b1-2)Man(a1-3)]Man(b1-4)GlcNAc(b1-4)GlcNAc
Summary of the method: as §1

[17] = biological target: Gal(b1-4)GlcNAc(b1-3)Gal(b1-4)GlcNAc(b1-2)[Gal(b1-4)GlcNAc(b1-3)Gal(b1-4)GlcNAc(b1-6)]Man(a1-6)[Gal(b1-4)GlcNAc(b1-3)Gal(b1-4)GlcNAc(b1-2)Man(a1-3)]Man(b1-4)GlcNAc(b1-4)[Fuc(a1-6)]GlcNAc
Summary of the method: as §1

[18] = biological target: Gal(b1-4)GlcNAc(b1-3)Gal(b1-4)GlcNAc(b1-3)Gal(b1-4)GlcNAc
Summary of the method: as §1

B1: FliC (Pseudomonas aeruginosa), P72151 (protein)
chain: MALTVNTNIASLNTQRNLNASSNDLNTSLQRLTTGYRINSAKDDAAGLQISNRLSNQISGLNVATRNANDGISLAQTAEGALQQSTNILQRIRDLALQSANGSNSDADRAALQKEVAAQQAELTRISDTTTFGGRKLLDGSFGTTSFQVGSNAYETIDISLQNASASAIGSYQVGSNGAGTVASVAGTATASGIASGTVNLVGGGQVKNIAIAAGDSAKAIAEKMDGAIPNLSARARTVFTADVSGVTGGSLNFDVTVGSNTVSLAGVTSTQDLADQLNSNSSKLGITASINDKGVLTITSATGENVKFGAQTGTATAGQVAVKVQGSDGKFEAAAKNVVAAGTAATTTIVTGYVQLNSPTAYSVSGTGTQASQVFGNASAAQKSSVASVDISTADGAQNAIAVVDNALAAIDAQRADLGAVQNRFKNTIDNLTNISENATNARSRIKDTDFAAETAALSKNQVLQQAGTAILAQANQLPQAVLSLLR
glycan array binding signal (z-score) [1]: 1.05 | glycan array binding signal (z-score) [2]: -0.105 | glycan array binding signal (z-score) [3]: -0.194 | glycan array binding signal (z-score) [4]: -0.178 | glycan array binding signal (z-score) [5]: 0.363 | glycan array binding signal (z-score) [6]: -0.022 | glycan array binding signal (z-score) [7]: 1.27 | glycan array binding signal (z-score) [8]: -0.226 | glycan array binding signal (z-score) [9]: 0.581 | glycan array binding signal (z-score) [10]: -0.256 | glycan array binding signal (z-score) [11]: -0.142 | glycan array binding signal (z-score) [12]: -0.192 | glycan array binding signal (z-score) [13]: -0.122 | glycan array binding signal (z-score) [14]: -0.105 | glycan array binding signal (z-score) [15]: -0.16 | glycan array binding signal (z-score) [16]: -0.183 | glycan array binding signal (z-score) [17]: 0.127 | glycan array binding signal (z-score) [18]: -0.189
